This is one part of the list. At the low end of the ranking the order means little.
These sequences were tested against T1, GST-Rok-C97-191 (UniProt O34857) (assay: protein binding microarray). Conditions: Rok is a gene silencer of Bacillus subtilis; high values mean tight binding; most listed sequences are background and not binding sites; double strand, one strand shown.
T1 sequence: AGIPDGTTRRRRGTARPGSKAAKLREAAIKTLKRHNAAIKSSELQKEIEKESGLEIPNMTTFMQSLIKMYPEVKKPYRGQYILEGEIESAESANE
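Note: rank score from −0.5 (least bound) to 0.5 (best bound).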

Sequence	binding signal [E-score]
AACAAACA	0.0599
AGTCGGCA	-0.0581
AGAAGCAC	-0.0716
CCTACGCC	-0.184
AGACACAG	0.00528
ACAAGAGT	0.0653
GGTCGCAC	-0.115
GACGCAAA	-0.0986
CAGGAAGG	-0.0787
AAAGCTCG	-0.166
AGTAAAAG	0.267
GCAGCTTA	-0.11
AGGGATCA	-0.157
CAGTTAGA	-0.0111
AATATTTG	0.194
AGTGCTTG	-0.0883
GTACGTAA	0.0489
CCGGGCAA	-0.224
ATGACCAT	-0.14
CCCTCCAC	-0.29
CGGTGGTC	-0.205
CGTTCGAG	-0.113
GTATACTA	0.338
GTCTCGAA	-0.0363
ACAGCTAA	0.219

Sequence	binding signal [E-score]
ACGCAGAG	-0.188
ATCAATTA	0.213
CCTGGCCA	-0.292
CTTGTCTC	-0.0999
CGTCTCAG	-0.15
GTGAATGA	-0.105
ATCATTAC	0.254
ACGGGGGC	-0.357
CGAGTTAC	0.13
AACTGACG	-0.0524
CCTGACCG	-0.265
ATGGCACG	0.00487
CCCGACTA	-0.126
CGCCTTTC	-0.327
ACCCGAAG	-0.266
GACCATAA	0.0376
CGTCTTTC	-0.0563
ACATGTCC	0.0978
CAGATACC	-0.0611
ACGAAAGG	-0.0608
TGTCCCAA	-0.11
AAGCGATT	0.194
ACATAACC	0.111
CAGCCATA	0.068
AACCCCAG	-0.261

Sequence	binding signal [E-score]
AACGAGAT	0.0637
CAAGGTAC	-0.0717
TAGATTCA	0.282
GAGTACGC	-0.152
CAGACAAG	-0.143
ATGAAGGG	-0.0907
CAGGGAGG	-0.279
AAACTCTC	0.0812
AACCGAAA	0.0957
CTTCGGCA	-0.145
ATCGTTCG	-0.00737
GCAATAAC	-0.174
GCAGCGAC	-0.101
CGCGAGCG	-0.215
GCCAGCCA	-0.324
GATTTAAC	0.265
AGCGGCCT	-0.118
CCCGCCCG	-0.29
CACGGACG	-0.11
CGTCTGTC	0.00209
ACCAGCCG	0.0915
CTGCATTC	-0.0615
ACATGCCC	-0.0671
GTGTGCTA	0.0695
AGGCAACA	-0.183

Sequence	binding signal [E-score]
CTTTATCA	-0.0451
GCCAACGC	-0.288
GATGCCCA	-0.0796
TCTGGGAA	0.0446
CTAACGCC	-0.0885
CAGCGGGA	-0.188
ATTAACAG	0.069
TAGCTAAA	0.239
TTAGACAA	0.0852
CGTATCTA	0.312
AAATTCAA	0.204
ACGGAAAT	0.154
CCAAAAGG	-0.224
GAGAACGA	-0.104
GAGCGCGA	-0.0265
AAGCTCAA	0.0333
GAGTTAAC	0.116
TAATGCGA	0.148
AGCGATAT	0.273
CATGGACG	-0.221
GTGGCCCA	-0.195
CCTGTCCG	-0.22
CGTTGAGA	-0.0429
AAAACGAG	-0.0181
CGAACTTA	-0.0294

Sequence	binding signal [E-score]
AATATTCG	0.307
CTATGAAA	0.124
AAAAATTA	0.268
CATCAGGG	-0.12
GAAAACTA	0.336
TAATCTGA	-0.0847
GGGCCGAC	-0.276
CCTCAAGA	0.0377
AATAGATG	0.267
AAACAGGC	-0.0568
AGTTTTGG	0.036
GCCTTCTA	-0.171
CACTGGGA	-0.187
ACAAATCT	0.0692
ACTACCAA	0.257
GCCTGTTA	-0.153
GGACAGTA	-0.00767
CTTGGGCA	-0.162
TCTGGTCA	-0.11
AATCCGTG	-0.0668
ATTCACTG	-0.0497
AAGTGTCC	-0.122
CTCCGGTA	0.0894
CCTAGTTA	0.168
AGACGGAC	-0.0383

Sequence	binding signal [E-score]
CTAGCCCC	-0.261
AAGGCCTA	-0.161
CCCAGAGG	-0.0643
CCCCACTA	-0.224
CATACCAG	0.0238
CCCTGCAA	-0.168
CTTGGCAC	-0.263
ACTACACA	0.223
ATAAGCAC	0.105
ACCTTGGG	-0.226
ATCATAAT	0.106
AGACGTAG	-0.0745
TGCGCGCA	0.0584
ATTCCGCA	-0.0237
GCGTGGGA	-0.0939
ATCATCGA	-0.0995
CGACATCC	-0.171
GGGCGGTA	0.052
AGGCGATA	0.0121
AGTTCATA	0.0168
AGCACACC	-0.172
GTTCTTCA	-0.0142
AAGACTAC	0.125
AAAGGTCG	-0.167
AAAGGTGT	-0.109

Sequence	binding signal [E-score]
GCCAGCGC	-0.072
CTGTTGGA	-0.2
AACACTCA	-0.147
CTCCTCAA	-0.0821
TGCACCCA	-0.124
TGCCTAAA	-0.0357
GTGCCAGA	-0.212
CCCTTACC	-0.213
AACATCAG	0.203
CCACTGCG	-0.211
GTGCTACA	0.109
ATTTAAAT	0.32
AGCCTACG	-0.22
CGCCTTAC	-0.0697
TTGGACAA	-0.021
TAGCCAAA	0.12
ATTCGATG	0.154
AGAAGTTC	0.129
CAAGCAAG	-0.131
ACGTGCGG	-0.0284
ATACTAGG	0.045
AATCACCG	-0.0342
CTGTTCAA	-0.201
GGCTACGA	-0.106
AGCATTAA	0.123

Sequence	binding signal [E-score]
TCAGACAA	-0.112
CTAGACAA	0.0408
AACGGCCT	-0.244
AGGATCAG	0.0221
AAATTGAA	0.171
AAGACAAA	-0.0497
GTTTACGA	0.0113
AGAAGACA	0.059
GAGATGTA	0.13
ATCTTGCA	0.13
ACATAATC	0.139
GCCCGAGC	-0.151
GCAGCGAA	0.00145
TAGCCAGA	-0.272
GCGGTCGA	-0.194
GCGGAAGC	-0.0941
CTCCATAC	0.0352
TGCATACA	-0.0705
CATCCCTA	-0.0266
CGGTCGGC	-0.26
GAATCAAA	0.0706
ATATTCAT	0.252
AACACGGT	-0.171
CACGTCGC	-0.131
GTCTTACA	-0.127

Sequence	binding signal [E-score]
GACTTGAA	0.0321
AGCTCCAT	0.0944
ACGACAGG	-0.216
AACCGTGA	-0.055
CAATTACA	0.164
AGATAGAT	0.349
AGCCAGGG	-0.258
ATCATATG	0.217
ACGCGGGA	-0.0896
ACGTGAAG	-0.0554
GAGAGAAA	0.201
ATAAGGCC	-0.124
GACCCCCC	-0.369
AGTGATAG	0.317
CGGCATAC	-0.0101
AGTGTTCA	-0.217
TAGGCGCA	-0.0724
AAACAAAA	-0.036
GCCGTACC	-0.0469

From publication PMC6212790
